Experimental data from US20200377599A1 (BETH ISRAEL DEACONESS MEDICAL CENTER, published 2020).

Target: T1, SPOP (UniProt O43791)
T1 construct: Expressed in 293T cells or endogenous in PC3, MDA-MB-231 and HeLa cells; also called SPOP-WT; Flag-tagged SPOP WT
Assay: co-immunoprecipitation from transfected 293T cells (FIG. 8G)

B1: PD-L1 T290M mutant (ligand)
chain: not shown
notes: Cancer-derived mutant (cBioPortal samples TCGA-IB-7651-01 and TCGA-BR-4362-01); also called cancer-derived PD-L1 T290M; HA-PD-L1 T290M
binding result: no binding
